Source: PubChem BioAssay AID624417 (National Center for Advancing Translational Sciences (NCATS), 2012)
About 6,400 (1.6%) of roughly 410,000 compounds were called active. Inconclusive results, whose numbers are uncertain, are shown with a selection of clear calls. Calls come from the whole dose curve; as a rule, active = well fitted inhibition curve with a large enough effect; inconclusive = small, poorly fitted or top-dose-only effect; inactive = no such curve, though single readings can be large or run the other way. No potency is given beside an inconclusive call; the fits are too rough.

The compounds below were run against Glucagon-like peptide 1 receptor (Homo sapiens) (UniProt P43220) (assay: qHTS of GLP-1 Receptor Inverse Agonists (Inhibition Mode)). Conditions: HEK293 GLP-1R CRE-luciferase, luminescence, 24 h, GLP-1R form is constitutively active; activity change, negative = inhibition: at 38.3 µM (top of the series) unless noted.
Chain of UniProt P43220 (P43220 whole entry, looked up): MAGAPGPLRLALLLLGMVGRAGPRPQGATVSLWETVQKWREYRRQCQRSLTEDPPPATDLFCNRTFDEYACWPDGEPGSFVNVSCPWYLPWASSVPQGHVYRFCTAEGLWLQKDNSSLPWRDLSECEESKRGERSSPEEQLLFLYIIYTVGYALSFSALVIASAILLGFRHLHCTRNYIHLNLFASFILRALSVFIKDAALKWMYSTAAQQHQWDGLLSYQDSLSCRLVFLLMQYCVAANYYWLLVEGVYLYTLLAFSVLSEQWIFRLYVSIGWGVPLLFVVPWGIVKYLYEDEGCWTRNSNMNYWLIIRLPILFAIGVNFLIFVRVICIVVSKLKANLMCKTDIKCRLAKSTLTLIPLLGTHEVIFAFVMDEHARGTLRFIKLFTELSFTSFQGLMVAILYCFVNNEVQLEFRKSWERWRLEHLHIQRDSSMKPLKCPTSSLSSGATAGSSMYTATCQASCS
How it was run: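 Inverse agonism was detected as reduced cAMP-driven luciferase luminescence after 24 h compound treatment. The cells were HEK293 clones expressing constitutively active human GLP-1R with the reporter. Reporter-only and GPR119 cell lines served as counterscreen controls.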
% is set by controls: 0 for no effect and ±100 for the full control effect; potency is the fitted concentration of half-maximal effect; tags give direction and shape of the fitted curve.
Note: nearly all actives have a fitted effect of over 55% in size.

Q: With CC(=O)c1nnn(-c2ccc([N+](=O)[O-])cc2)c1C as the compound, how does the “activity change, negative = inhibition” value read?
A: inactive: 9.17%

Q: How did the Potency turn out when O=C1CSC(c2ccc(F)cc2)N1c1c(F)cccc1F (stereo not given) was run?
A: inconclusive [inhibitor, single point]

Q: O=C(O)c1ccccc1C(=O)c1ccc(Sc2ccc(Cl)cc2)c([N+](=O)[O-])c1 was tested. Which Potency did it give?
A: inconclusive [inhibitor, single point]

Q: How did the Potency turn out when CS(=O)(=O)N(CC(=O)Nc1ccc2c(c1)OCCO2)Cc1ccc(Cl)cc1 was run?
A: inconclusive [inhibitor, single point]

Q: Which Potency does the source give for Cn1cccc1/C=C1\SC(=S)N(Nc2ccccc2)C1=O here?
A: inconclusive [inhibitor, full curve, poor fit]

Q: CCc1ccc(N2C(=O)CN(Cc3ccccc3)C2=S)cc1 was tested. Which Potency did it give?
A: inconclusive [inhibitor, partial curve, poor fit]

Q: Which “activity change, negative = inhibition” value does the source give for Clc1cccc(Nc2nc(-c3ccncc3)nc3ccccc23)c1 here?
A: inactive: -32%

Q: Which Potency does the source give for O=C(CN1CCCc2ccccc21)Nc1cc(S(=O)(=O)N2CCCC2)ccc1Cl here?
A: inconclusive [inhibitor, partial curve, poor fit]

Q: CCN1C[C@@H]2[C@@H]3C(=O)N(Cc4ccccc4)C(=O)[C@@H]3[C@](CC)(C1=O)N2C(=O)c1ccc(Cl)c(Cl)c1 was tested. Which Potency did it give?
A: inconclusive [inhibitor, single point]

Q: With CCN(C(=O)c1ccco1)C1C2CC3CC(C2)CC1C3 (stereo not given) as the compound, how does the Potency read?
A: inconclusive [inhibitor, partial curve, poor fit]

Q: CCCS(=O)(=O)c1ncc(Cl)c(C(=O)N2CCN(c3ccc(OC)cc3)CC2)n1 was tested. Which Potency did it give?
A: inconclusive [inhibitor, single point]

Q: How did the Potency turn out when COc1ccc(C(=O)C2CCCN(Cc3cccn3-c3ccccn3)C2)c(OC)c1 (stereo not given) was run?
A: inconclusive [inhibitor, partial curve, poor fit]

Q: Which Potency does the source give for Cc1ccc(S(=O)(=O)NCCC(=O)Nc2ccc(Cl)c(Cl)c2)cc1C here?
A: inconclusive [inhibitor, partial curve, poor fit]

Q: How did the Potency turn out when O=C1OC[C@@H]2CCCN2C(=O)[C@@H](CC(=O)N(CCO)Cc2ccccc2)C/C=C\CC[C@H]1Cc1ccc(F)cc1 was run?
A: inconclusive [inhibitor, single point]

Q: For CC(=O)Nc1cccc(C(=O)N(CCc2ccccc2)Cc2ccccc2)c1, which Potency is on record?
A: inconclusive [inhibitor, partial curve, poor fit]

Q: Which Potency does the source give for CCc1ccc(OCC(=O)N/N=C/c2ccc(OS(=O)(=O)c3ccc(C)cc3)c(OC)c2)cc1 here?
A: inconclusive [inhibitor, partial curve, poor fit]

Q: COc1cc2c(=O)n(-c3ccc(C)cc3)c(=O)n(CC(=O)c3ccc4c(c3)OCO4)c2cc1OC was tested. Which Potency did it give?
A: inconclusive [inhibitor, full curve, poor fit]

Q: Which Potency does the source give for CCCNC(=O)c1onc(CSc2ccc(Cl)cc2)c1C(=O)NCCC(C)C here?
A: active: 10 µM

Q: How did the “activity change, negative = inhibition” value turn out when Cc1ccc(C(=O)OC/C(O)=C(\C#N)c2nc3ccccc3[nH]2)cc1S(=O)(=O)N1CCOCC1 was run?
A: inactive: -14.9%

Q: With CC(C)c1nc2cc(Cl)ccc2n(Cc2ccccc2)c1=O as the compound, how does the Potency read?
A: active: 7.94 µM

Q: Which Potency does the source give for O=[N+]([O-])c1cccc(NC(=S)N2CCc3ccccc3C2)c1 here?
A: inconclusive [inhibitor, single point]

Q: Cn1cc(/C=N/NC(N)=S)c2ccccc21 was tested. Which Potency did it give?
A: inconclusive [inhibitor, single point]

Q: How did the “activity change, negative = inhibition” value turn out when O=S(=O)(Cc1noc(-c2ccc(Cl)cc2)n1)Cc1ccco1 was run?
A: inactive: 15.3%

Q: For CCOC(=O)C1=C(C)NC(C)=C(C(=O)OCC)C1c1ccccn1, which Potency is on record?
A: inconclusive [inhibitor, single point]

Q: How did the Potency turn out when CCN(Cc1ccncc1)C(=O)c1cc(COc2ccc(C)c(C)c2)on1 was run?
A: inconclusive [inhibitor, single point]

Q: COc1cccc(C#Cc2c(CO)[nH]c3ccccc23)c1 was tested. Which Potency did it give?
A: inconclusive [inhibitor, single point]

Q: CCOC(=O)c1[nH]c(C)c(C(=O)OCC)c1C was tested. Which “activity change, negative = inhibition” value did it give?
A: inactive: 18.2%

Q: For COc1ccccc1N(C)S(=O)(=O)c1ccc(Cl)c(C(=O)Nc2ccncc2)c1, which Potency is on record?
A: inconclusive [inhibitor, partial curve, poor fit]

Q: How did the Potency turn out when CCOC(=O)c1c(-c2ccccc2)oc2ccc(NS(=O)(=O)c3ccc(OC)cc3)cc12 was run?
A: inconclusive [inhibitor, partial curve, poor fit]

Q: COc1ccc2ccccc2c1CN(C)Cc1ccccc1 was tested. Which Potency did it give?
A: inconclusive [inhibitor, partial curve, poor fit]

Q: O=[N+]([O-])c1cc(-c2nc(-c3ccccc3)no2)ccc1NCC1CCCO1 (stereo not given) was tested. Which “activity change, negative = inhibition” value did it give?
A: inactive: 17.3%

Q: Which Potency does the source give for Cc1cc(OCc2ccc(C(=O)n3cccn3)o2)ccc1Cl here?
A: inconclusive [inhibitor, single point]

Q: With O=C(NCC1CCN(S(=O)(=O)c2ccccc2)CC1)Nc1ccc(F)cc1 as the compound, how does the Potency read?
A: inconclusive [inhibitor, single point]

Q: C=CCn1c(CCc2cc(C(C)(C)C)c(O)c(C(C)(C)C)c2)n[nH]c1=S was tested. Which Potency did it give?
A: inconclusive [inhibitor, single point]

Q: How did the Potency turn out when CCOC(=O)C1CCN(C(=O)Nc2ccc3nc(-c4ccco4)c(-c4ccco4)nc3c2)CC1 was run?
A: inconclusive [inhibitor, single point]

Q: Which Potency does the source give for C=CCNC(=O)N1c2ccccc2Sc2ccccc21 here?
A: inconclusive [inhibitor, partial curve]

Q: O=C(Cc1cccs1)NCCS(=O)(=O)N1CCN(c2ccccc2F)CC1 was tested. Which Potency did it give?
A: inconclusive [inhibitor, full curve]

Q: With CCOC(CCNC(=O)c1cn(C)c(=O)c2c1c1ccccc1n2C)OCC as the compound, how does the “activity change, negative = inhibition” value read?
A: inactive: 8.96%

Q: O=C(c1cc(C2CC2)nn1-c1ccccc1)N1CCN(c2ccccc2O)CC1 was tested. Which Potency did it give?
A: inconclusive [inhibitor, partial curve, poor fit]

Q: For Cc1ccccc1OCCn1c(=O)oc2ccccc21, which Potency is on record?
A: inconclusive [inhibitor, single point]
